Reference: the supplement of paper PMC4604168 (melanoma cell lines)
Some of the results follow. Single values are uncertain, as repeats are few or missing.

Tests used:
Experiment in all cases: cell count relative to DMSO control; melanoma cells; higher = more viable cells
Settings in all cases: library dose: low library concentration; 72 h
WM115 = system: WM115
WM1716 = system: WM1716
WM1745 = system: WM1745
WM3526 = system: WM3526
WM3619 = system: WM3619
WM451Lu = system: WM451Lu
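Also: cell number obtained by counting DAPI-stained nuclei in high-throughput microscope images with image analysis software, screen run in 1,536-well plates.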

Row | Compound | cell count (WM115) [%] | cell count (WM1716) [%] | cell count (WM1745) [%] | cell count (WM3526) [%] | cell count (WM3619) [%] | cell count (WM451Lu) [%]
1 | Nc1nc(F)nc2c1ncn2[C@@H]1O[C@H](CO)[C@@H](O)[C@@H]1O [fludarabine] + CC(C)(C)c1cnc(CSc2cnc(NC(=O)C3CCNCC3)s2)o1 [SNS-032] (first compound 0.2 µM, partner dose 0.01 µM) | 94.7 | 103 | 86.8 | 25.6 | 98.5 | 40.5
2 | CC(=O)c1c(C)c2cnc(Nc3ccc(N4CCNCC4)cn3)nc2n(C2CCCC2)c1=O [palbociclib] + NCC(=O)Nc1ccc(-n2nc(C(F)(F)F)cc2-c2ccc3c(ccc4ccccc43)c2)cc1 [OSU03012] (first compound 0.04 µM, partner dose 1 µM) | 66.1 | 57.3 | 75.6 | 50.6 | 73.3 | 45.8
3 | Nc1nc(F)nc2c1ncn2[C@@H]1O[C@H](CO)[C@@H](O)[C@@H]1O [fludarabine] + O=C(O)c1ccc(-c2c[nH]c3ncc(-c4ccccc4)cc23)cc1C1CCCC1 [GSK650394] (first compound 0.2 µM, partner dose 0.16 µM) | 83.6 | 97.2 | 104 | 27.6 | 86.9 | 44.1
4 | CC(=O)c1c(C)c2cnc(Nc3ccc(N4CCNCC4)cn3)nc2n(C2CCCC2)c1=O [palbociclib] + O=S(=O)(c1ccccc1)N(CC(F)(F)F)c1ccc(C(O)(C(F)(F)F)C(F)(F)F)cc1 [T0901317] (first compound 0.04 µM, partner dose 1.4 µM) | 66.3 | 48.1 | 63 | 92.9 | 76.1 | 58.9
5 | Nc1ncn([C@H]2C[C@H](O)[C@@H](CO)O2)c(=O)n1 [decitabine] + CN(NC(=O)CC(=O)NN(C)C(=S)c1ccccc1)C(=S)c1ccccc1 [STA4783] (first compound 0.1 µM, partner dose 0.006 µM) | 83.9 | 86.5 | 86.2 | 99.4 | 109 | 85.9
6 | Nc1ccn([C@@H]2O[C@H](CO)[C@@H](O)C2(F)F)c(=O)n1 [gemcitabine] + COc1cc2c(Oc3ccc4[nH]c(C)cc4c3F)ncnc2cc1OCCCN1CCCC1 [cediranib] (first compound 0.0004 µM, partner dose 0.4 µM) | 89.4 | 93 | 55.2 | 97.1 | 81.2 | 110
7 | Nc1ncn([C@H]2C[C@H](O)[C@@H](CO)O2)c(=O)n1 [decitabine] + Cn1cncc1[C@@](N)(c1ccc(Cl)cc1)c1ccc2c(c1)c(-c1cccc(Cl)c1)cc(=O)n2C [tipifarnib] (first compound 0.1 µM, partner dose 0.01 µM) | 66.9 | 64.8 | 90.2 | 88.8 | 89.9 | 84.6
8 | CC(=O)c1c(C)c2cnc(Nc3ccc(N4CCNCC4)cn3)nc2n(C2CCCC2)c1=O [palbociclib] + COc1cc2ncnc(Nc3ccc(Oc4ccccc4)cc3)c2cc1OC [SrcI1] (first compound 0.04 µM, partner dose 2 µM) | 69.3 | 56.9 | 65.3 | 63.8 | 69.7 | 62.4
9 | Nc1ncn([C@H]2C[C@H](O)[C@@H](CO)O2)c(=O)n1 [decitabine] + c1cc(-c2cnn3cc(-c4ccc(OCCN5CCCCC5)cc4)cnc23)ccn1 [Dorsomorphin] (first compound 0.1 µM, partner dose 0.4 µM) | 86.9 | 102 | 99 | 88.7 | 109 | 99.1
10 | Nc1ccn([C@@H]2O[C@H](CO)[C@@H](O)C2(F)F)c(=O)n1 [gemcitabine] + CC(C)(C)c1cnc(CSc2cnc(NC(=O)C3CCNCC3)s2)o1 [SNS-032] (first compound 0.0004 µM, partner dose 0.01 µM) | 97.1 | 83.7 | 72.2 | 106 | 87.2 | 92.2
11 | Nc1ncn([C@H]2C[C@H](O)[C@@H](CO)O2)c(=O)n1 [decitabine] + O=C1NC(=O)/C(=C/c2ccc(-c3ccc(F)cc3O)o2)S1 [AS252424] (first compound 0.1 µM, partner dose 1 µM) | 79.3 | 84.7 | 86.9 | 101 | 73.1 | 106
12 | Nc1ccn([C@@H]2O[C@H](CO)[C@@H](O)C2(F)F)c(=O)n1 [gemcitabine] + C[C@@H]1CCN(C(=O)CC#N)C[C@@H]1N(C)c1ncnc2[nH]ccc12 [CP690550] (first compound 0.0004 µM, partner dose 1 µM) | 105 | 100 | 75.5 | 115 | 76.1 | 56.3
13 | Nc1nc(F)nc2c1ncn2[C@@H]1O[C@H](CO)[C@@H](O)[C@@H]1O [fludarabine] + Oc1cc(-c2nc(-c3ccccc3)[nH]c2-c2ccncc2)ccc1Cl [L779450] (first compound 0.2 µM, partner dose 0.2 µM) | 88.7 | 113 | 94.6 | 14.1 | 82.6 | 36
14 | Nc1ccn([C@@H]2O[C@H](CO)[C@@H](O)C2(F)F)c(=O)n1 [gemcitabine] + Oc1nc(-c2ccc(C(F)(F)F)cc2)nc2c1CSCC2 [XAV939] (first compound 0.0004 µM, partner dose 2 µM) | 99.8 | 65.7 | 58.1 | 87.2 | 87.7 | 87.8
